According to patent US20260049151A1 (SHENGHE CHINA BIOPHARMACEUTICAL, published 2026):

T1: Human-TNFR2-His (human, UniProt P20333 23-257)
T1 construct: Bought protein; also called human TNFR2 protein; TNFR2 protein; not shown: His tag
T1 sequence (looked up): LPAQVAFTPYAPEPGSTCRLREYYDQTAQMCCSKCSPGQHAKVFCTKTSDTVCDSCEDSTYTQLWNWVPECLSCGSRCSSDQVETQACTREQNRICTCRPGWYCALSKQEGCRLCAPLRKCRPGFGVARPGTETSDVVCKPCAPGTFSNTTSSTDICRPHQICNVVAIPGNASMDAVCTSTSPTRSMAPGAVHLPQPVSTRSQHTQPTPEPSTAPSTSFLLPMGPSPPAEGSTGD


Assays:
Human 4-1BB His = biological target: T2, Human 4-1BB His (human, UniProt Q07011 24-186); assay: ELISA: Human 4-1BB His coated (0.2 ug/mL), antibody titrated, goat anti-human IgG detection (Example 13)
T2 construct: Bought protein; lots 198-2146F1-W6 and 2407c-214FF1-YC; also called human 4-1BB protein; 4-1BB protein; not shown: His tag
Experimental: (§1) It was blocked with 3% skim milk powder at 300 μL/well, and incubated at 37° C. for 1 h. The blocking solution was poured off, washed 4 times with a plate washer, and patted dry on a flat paper. Negative control and positive control were set up. […] The liquid in the well was discarded, washed 4 times with a plate washer, and patted dry on a flat paper. […] It was washed 6 times with a plate washer, and patted dry on a flat paper. TMB color developing solution was added at 100 μL/well, and wrapped with aluminum foil. Color development was performed at 37° C. in the dark for 8 min. Termination solution 1M HCl was added to terminate the color development reaction at 100 μL/well. Readings were taken at 450 nm on an ELISA reader.

Human-TNFR2-His = biological target: T1, Human-TNFR2-His; assay: ELISA: Human-TNFR2-His coated (0.1 ug/mL), antibody titrated, goat anti-human IgG Fc detection (Example 12)
Experimental: as §1, with “Termination solution 1M HCl was added to terminate the color development reaction at 100 μL/well.” left out

Chain of Human 4-1BB His (Q07011 24-186 limits assumed): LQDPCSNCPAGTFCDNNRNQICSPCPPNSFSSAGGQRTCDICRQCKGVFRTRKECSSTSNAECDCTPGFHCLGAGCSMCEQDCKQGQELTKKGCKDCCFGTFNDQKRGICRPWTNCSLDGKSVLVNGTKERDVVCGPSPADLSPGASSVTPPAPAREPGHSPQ

| Binder | binding result (Human 4-1BB His) | EC50 (read off the curve) (Human-TNFR2-His) | EC50 (read off the curve) (Human 4-1BB His) |
| --- | --- | --- | --- |
| Antibody O5 (bispecific antibody, IgG1, IgG1 subtype; two peptide chains) EVQLVESGGGLVQPGGSLRLSCAASGSRLDYYAVAWFRQAPGKEREEVSCITYSGGSTNYAESVKGRFTISRDNSKNTLYLQMNSLRAEDTAVYYCTTEPYGSSCPLSGYDTWGQGTLVTVSS[… human IgG1 Fc …]GGGGSGGGGSGGGGSGGGGSQVQLQESGPGLVKPSETLSLTCTVSGSSLTSYGVHWVRQPPGKGLEGLGVIWPGGSTNYNSALMSRVTISKDNSKSQVSLKMSSLTAADTAVYYCARVTGTWYFDVWGQGTTVTVSSGGGGSGGGGSGGGGSDIQMTQSPSSLSASLGDRVTISCSASQGISNYLNWYQQKPDGTVKLLIYYTSTLHSGVPSRFSGSGSGTDYTLTISSLQPEDIATYYCQQYSKLPWTFGGGTKLEIK | binds | ~0.04 µg/mL |  |
| Antibody O6 (bispecific antibody, IgG1, IgG1 subtype; two peptide chains) EVQLVESGGGLVQPGGSLRLSCAASGSRLDYYAVAWFRQAPGKEREEVSCITYSGGSTNYAESVKGRFTISRDNSKNTLYLQMNSLRAEDTAVYYCTTEPYGSSCPLSGYDTWGQGTLVTVSS[… human IgG1 Fc …]GGGGSGGGGSGGGGSGGGGSQVQLQESGPGLVKPSETLSLTCTVSGSSLTSYGVHWVRQPPGKGLEGLGVIWPGGSTNYNSALMSRVTISKDNSKSQVSLKMSSLTAADTAVYYCARVTGTWYFDVWGQGTTVTVSSSPNSASHSGSAPQTSSAPGSQDIQMTQSPSSLSASLGDRVTISCSASQGISNYLNWYQQKPDGTVKLLIYYTSTLHSGVPSRFSGSGSGTDYTLTISSLQPEDIATYYCQQYSKLPWTFGGGTKLEIK |  | ~0.05 µg/mL | ~0.09 µg/mL |
| Antibody O7 (bispecific antibody, IgG1, IgG1 subtype; two peptide chains) EVQLVESGGGLVQPGGSLRLSCAASGSRLDYYAVAWFRQAPGKEREEVSCITYSGGSTNYAESVKGRFTISRDNSKNTLYLQMNSLRAEDTAVYYCTTEPYGSSCPLSGYDTWGQGTLVTVSS[… human IgG1 Fc …]GGGGSGGGGSGGGGSGGGGSQVQLQESGPGLVKPSETLSLTCTVSGSSLTSYGVHWVRQPPGKGLEGLGVIWPGGSTNYNSALMSRVTISKDNSKSQVSLKMSSLTAADTAVYYCARVTGTWYFDVWGQGTTVTVSSGGGSAAADIQMTQSPSSLSASLGDRVTISCSASQGISNYLNWYQQKPDGTVKLLIYYTSTLHSGVPSRFSGSGSGTDYTLTISSLQPEDIATYYCQQYSKLPWTFGGGTKLEIK | binds | ~0.03 µg/mL |  |
| Antibody O8 (bispecific antibody, IgG1, IgG1 subtype; two peptide chains; cysteine introduced in VH(4-1BB) and VL(4-1BB)) EVQLVESGGGLVQPGGSLRLSCAASGSRLDYYAVAWFRQAPGKEREEVSCITYSGGSTNYAESVKGRFTISRDNSKNTLYLQMNSLRAEDTAVYYCTTEPYGSSCPLSGYDTWGQGTLVTVSS[… human IgG1 Fc …]GGGGSGGGGSGGGGSGGGGSQVQLQESGPGLVKPSETLSLTCTVSGSSLTSYGVHWVRQPPGKCLEGLGVIWPGGSTNYNSALMSRVTISKDNSKSQVSLKMSSLTAADTAVYYCARVTGTWYFDVWGQGTTVTVSSGGGGSGGGGSGGGGSGGGGSDIQMTQSPSSLSASLGDRVTISCSASQGISNYLNWYQQKPDGTVKLLIYYTSTLHSGVPSRFSGSGSGTDYTLTISSLQPEDIATYYCQQYSKLPWTFGCGTKLEIK |  | ~0.02 µg/mL | ~0.008 µg/mL |
